According to PMC4336329 (PLoS ONE, 2015):
In all, about 310,000 compounds went through this assay and about 14,000 (4.5%) showed an effect of 50% or more. Effects have a minus sign here. The list shows a part of the results.

target: human ether-à-go-go-related gene (hERG) potassium channel (human, UniProt Q12809); experiment: primary screen, population patch clamp on CHO cells stably expressing hERG
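Note: peak tail current of the secondary pulse compared with the same well before compound.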

Sequence of human ether-à-go-go-related gene (hERG) potassium channel (Q12809 whole entry, looked up): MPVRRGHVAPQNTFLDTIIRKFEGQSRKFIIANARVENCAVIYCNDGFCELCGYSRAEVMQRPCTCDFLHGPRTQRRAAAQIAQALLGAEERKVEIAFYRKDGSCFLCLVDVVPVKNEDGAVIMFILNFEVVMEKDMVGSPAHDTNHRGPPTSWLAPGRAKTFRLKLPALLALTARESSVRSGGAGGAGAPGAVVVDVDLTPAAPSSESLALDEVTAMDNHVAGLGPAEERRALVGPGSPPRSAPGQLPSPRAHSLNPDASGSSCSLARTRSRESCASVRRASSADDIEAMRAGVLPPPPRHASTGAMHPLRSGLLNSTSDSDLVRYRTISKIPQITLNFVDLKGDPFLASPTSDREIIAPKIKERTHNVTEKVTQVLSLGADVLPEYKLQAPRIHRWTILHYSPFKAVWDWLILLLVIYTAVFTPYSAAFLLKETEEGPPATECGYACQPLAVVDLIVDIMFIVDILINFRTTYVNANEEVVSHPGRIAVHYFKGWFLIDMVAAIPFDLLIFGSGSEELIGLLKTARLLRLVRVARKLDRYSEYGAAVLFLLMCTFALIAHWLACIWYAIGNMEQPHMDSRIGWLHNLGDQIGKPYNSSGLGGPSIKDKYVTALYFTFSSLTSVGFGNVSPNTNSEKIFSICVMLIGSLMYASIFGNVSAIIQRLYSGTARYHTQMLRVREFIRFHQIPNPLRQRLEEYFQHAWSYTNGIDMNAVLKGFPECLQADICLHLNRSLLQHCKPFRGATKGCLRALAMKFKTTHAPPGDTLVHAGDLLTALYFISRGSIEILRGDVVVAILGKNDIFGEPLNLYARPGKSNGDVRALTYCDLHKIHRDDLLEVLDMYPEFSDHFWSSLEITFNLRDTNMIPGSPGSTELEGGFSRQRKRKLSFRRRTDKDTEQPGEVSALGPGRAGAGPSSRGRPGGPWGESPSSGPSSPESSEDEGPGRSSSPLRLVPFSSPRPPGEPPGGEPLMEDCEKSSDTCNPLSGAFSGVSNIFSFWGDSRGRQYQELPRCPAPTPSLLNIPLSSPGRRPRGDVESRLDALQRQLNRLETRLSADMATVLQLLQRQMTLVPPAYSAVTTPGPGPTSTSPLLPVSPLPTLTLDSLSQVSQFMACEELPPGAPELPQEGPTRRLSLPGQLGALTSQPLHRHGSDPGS

Row | Compound | hERG current change (%, negative = inhibition) at 10uM [%]
1 | CS(=O)(=O)N(CC(=O)N/N=C/c1cccs1)c1cccc(Cl)c1Cl | -22.3
2 | COc1ccc(-c2nnc(NC(=O)CS(=O)(=O)c3ccc(F)cc3)o2)c(OC)c1 | 5.09
3 | Cc1ccc(CNC(=O)CN(CCc2ccccc2)S(C)(=O)=O)cc1 | -10.9
4 | CCC1(c2ccccc2)NC(=O)N(CC(=O)Nc2ccccc2C(=O)N2CCCCC2)C1=O (stereo not drawn) | -0.337
5 | S=C(NCc1ccc(Cl)cc1)Nc1ccccc1 | -20.8
6 | Cc1sc(NC(=O)CN(Cc2ccccc2)C(=O)C2CC2)c(C(N)=O)c1C | 30.8
7 | CC1=C(C(=O)OC2CCCCC2)C(c2cccnc2)n2ncnc2N1 (stereo not drawn) | 6.27
8 | Cc1ccc(N2CCN(S(=O)(=O)N3CCCCC3)CC2)c(C)c1 | 13
9 | C/C=C/c1ccc(OCCCCN2CCC(C)CC2)c(OC)c1 | -68.1
10 | COc1cccc(C2Nc3ccccc3NC3=C2C(=O)CC(C)(C)C3)c1OC (stereo not drawn) | 9.83
11 | Cc1cc(NC(=O)c2ccc3nc(C)sc3c2)no1 | -1.41
12 | O=C(CC1C(=O)NCCN1Cc1cccc(Oc2ccccc2)c1)NCCc1cnccn1 (stereo not drawn) | 14.8
13 | COC(=O)c1ccccc1OCCOc1ccccc1C(=O)OC | -8.08
14 | COc1ccc(C(=O)Oc2ccc(/C=N/NC(=O)c3ccccc3OC)cc2[N+](=O)[O-])cc1 | 7.59
15 | O=C(Cn1[nH]c(=O)c2ccccc2c1=O)OCC(=O)N1CCc2ccccc2C1 | -17.4
16 | Cc1cccc(C)c1OCc1cc(C(=O)N2CCNC(=O)C2)no1 | -1.59
17 | COc1ccc(N2C(=O)CCC2(C(N)=O)c2ccccc2)cc1 (stereo not drawn) | 17.8
18 | COC(=O)c1sc2ccccc2c1NC(=O)c1ccc(S(=O)(=O)N2CCCC(C)C2)cc1 (stereo not drawn) | -9.46
19 | Cc1cccc(NC(=O)c2ccc3ccccc3n2)n1 | -4.54
20 | COc1ccc(-c2cc(C(=O)Nc3cccnc3Cl)no2)cc1 | 21.9
21 | COc1cnn(-c2cccc(C)c2)c(=O)c1Cl | 17.6
22 | COc1cccc(NC(=O)CN(C)C(=O)C23CC4CC(CC(Cl)(C4)C2)C3)c1 | -15.1
23 | CC(C)C(c1nnnn1Cc1ccccc1)N1CCN(Cc2ccc3c(c2)OCO3)CC1 (stereo not drawn) | -52

Row | Compound | hERG current change (%, negative = inhibition) at 10uM [%]
24 | CC(=O)Nc1c(F)c(F)c(F)c(F)c1F | 6.66
25 | CC1Oc2ccccc2N(CC(=O)N2CCCCCC2)C1=O (stereo not drawn) | 12
26 | CN(Cc1ccccc1)S(=O)(=O)c1ccc2c(c1)n(C)c(=O)n2C | -9.76
27 | CCCCNc1c(-c2ccc(SC3CCCCC3)c(OC)c2)nc2ccc(Cl)cn12.O=C(O)C(F)(F)F | 7.39
28 | C(=N/N1CCN(c2ccccc2)CC1)/c1ccncc1 | -8.37
29 | OC(CNCc1ccccc1)COc1ccccc1 (stereo not drawn) | -11.9
30 | Cn1nnnc1Sc1ncnc2scc(-c3ccccc3Cl)c12 | -24.4
31 | CCOC(=O)c1sc(NC(=O)c2ccco2)c(C#N)c1C | 20.4
32 | COc1ccc(C(C)=O)cc1CSc1nc2ccccc2o1 | 14
33 | CCC(=O)N1CCC2(CC1)Oc1ccc(Cl)cc1C(=O)C21CC(c2ccccc2)=NO1 (stereo not drawn) | 5.79
34 | CCN(CC)C(=S)NC(=O)c1ccc(Cl)cc1Cl | 4.13
35 | Cc1ccc(NC(=O)c2ccc3ccccc3n2)nc1 | -9.27
36 | CCOC(=O)Cn1ccc(NC(=O)c2ccc(F)cc2)n1 | 4.41
37 | CSc1ccc(S(=O)(=O)NCc2ccc(Cl)cc2)cc1 | -10.5
38 | CCCn1c(=O)c2ccccc2n2c(SCCOc3ccccc3)nnc12 | -29.2
39 | Cc1ccc(S(=O)(=O)Nc2ccc(O)c3cccnc23)cc1 | -11.2
40 | COC(=O)[C@H](CCSC)NC(=O)NCCc1ccc(F)cc1 | 12.2
41 | O=C(O)c1ccc(N/N=C/C=C/c2ccc([N+](=O)[O-])o2)cc1 | 11.8
42 | CCOC(=O)[C@H]1[C@H]2COc3ccc(Cl)cc3[C@@H]2N2C(=O)CNC(=O)[C@@]12C | 14.5
43 | CCOC(=O)c1sc(NC(=O)C(CC)Sc2nc3ccccc3[nH]2)nc1C (stereo not drawn) | -1.19
44 | CCOc1ccc(N2CC(C(=O)Nc3ccc4c(c3)OCCO4)CC2=O)cc1 (stereo not drawn) | -1.6
45 | O=C(O)C1(Cc2nc3ccccc3[nH]2)CCCC1 | 24.7
46 | Nc1cnn(C2CCCO2)c(=O)n1 (stereo not drawn) | 14.3

Row | Compound | hERG current change (%, negative = inhibition) at 10uM [%]
47 | CN1CCCNc2nc3ccccc3nc21 | -5.48
48 | CC(=O)Nc1ccc2c(c1)CCC2=O | -3.43
49 | COC(=O)c1ccc(CSc2cc(C)c3cccc(C)c3n2)o1 | 21.2
50 | Cc1ccc(CN2CCN(Cc3nc(C(C)C)cs3)CC2CCO)cc1 (stereo not drawn) | -68.5
51 | Nc1nccnc1C(=O)N/N=C/c1ccco1 | 9.16
52 | COc1ccc(OC)c2sc(NC(=O)C(C)C)nc12 | -0.208
53 | Cc1ccc(NC(=O)NNC(=O)c2cc3ccccc3cc2O)cc1 | 25.2
54 | COC(=O)c1ccccc1NC1CC(=O)N(c2c(C)cccc2C)C1=O (stereo not drawn) | -5.34
55 | CCCc1cc(C(=O)NCc2cccs2)no1 | -8.27
56 | CCN(CC)c1ccc(/C=C2\C(=N)N3N=C(CC(=O)N4CCOCC4)SC3=NC2=O)cc1 | 13.1
57 | CCn1c(SCC(=O)N2CCc3ccccc32)nc2c(c1=O)SC(C)C2 (stereo not drawn) | -6.73
58 | CC(C)NC(=O)NC(=O)COC(=O)c1ccccc1F | 5.41
59 | COc1ccc(CNC(=O)c2cc(-c3ccc(OC)c(OC)c3)on2)cc1 | 6.84
60 | CCn1c2ccc(C)cc2c2n[nH]c(=S)nc21 | 0.73
61 | C=CCn1c(SCC(=O)c2ccc(CNC(C)=O)o2)nc2ccccc2c1=O | -24.1
62 | Cc1ccc(NC(=O)c2cc(NC(=O)c3ccco3)ccc2N2CCCCC2)cc1 | 13
63 | C#CCOCCOCCOCCNc1nc(N2CCN(C(=O)CCCCCCCCCCNC(=O)[C@H](CCCCN)n3cc(CCO)nn3)CC2)nc(N2CCN(C(=O)CCCCCCCCCCNC(=O)[C@H](CCCCN)n3cc(CCCC(=O)O)nn3)CC2)n1 | 5.01
64 | CC(=O)N1CCN(c2ccc(NC(=O)c3ccccc3Cl)cc2)CC1 | 0.783
65 | O=C(C1CCN(Cc2nc(-c3ccc(Cl)cc3)no2)CC1)N1CCOCC1 | -61.9
66 | COc1ccc(/C(O)=C2/C(=O)C(=O)N(CCCN(C)C)C2c2ccc(Cl)cc2)cc1OC (stereo not drawn) | 12.2
67 | O=C(Nc1ccon1)c1cc2c(s1)CCCC2 | -19
68 | Cc1ccc(/C=[N+](/[O-])C2SC(=S)N(C)C2(C)C)cc1 (stereo not drawn) | 7.34
69 | CCN(CC)C(=O)COc1ccc2oc(C)c(C(=O)OC)c2c1 | -7.15

Row | Compound | hERG current change (%, negative = inhibition) at 10uM [%]
70 | Cc1cccc(N2C(=O)CCC2=O)c1 | -1.04
71 | CCCN(CCC)CCCNC(=O)Cn1cnc2sc(C)c(S(=O)(=O)N3CCC(C)CC3)c2c1=O | 9.37
72 | O=C(COC(=O)CC1CCCC1)Nc1ccc(OC(F)F)cc1 | 9.71
73 | Cc1cc(C(=O)N2CCN(c3ncccn3)CC2)nn1C | -14.1
74 | CCC(C)C(Nc1ncnc2scc(-c3ccccc3)c12)C(=O)O (stereo not drawn) | 23.4
75 | COC(=O)C1=C(C)NC(=S)NC1c1ccc(OCC(=O)N2CC(C)OC(C)C2)c(OC)c1 (stereo not drawn) | 18.4
76 | CCC1(CC)C(=O)C(C)(C)C(=O)OC1c1cccs1 (stereo not drawn) | -12.7
77 | COc1cccc(C(=O)OCn2nnc3ccccc3c2=O)c1 | 0.671
78 | O=C(c1ccco1)N1CCN(S(=O)(=O)c2cccc(C(F)(F)F)c2)CC1 | -8.61
79 | CC(NC(=O)c1ccccc1Cl)C1COc2ccccc2O1 (stereo not drawn) | -9.88
80 | CCN(CCNC(=O)C1CCN(c2nnc(-n3cccc3)s2)CC1)c1ccccc1 | -37.1
81 | COc1cc(C2Nn3c(nnc3-c3ccccc3OC)S2)ccc1O (stereo not drawn) | 19.1
82 | Cc1ccc(OCC(=O)NCC2CCCO2)c(C)c1 (stereo not drawn) | 13.8
83 | CCCCCc1c(C)nc(N2CCOCC2)[nH]c1=O | 6.22
84 | C=CCn1c(SCC(=O)N(C)c2c(N)n(Cc3ccccc3)c(=O)[nH]c2=O)nnc1-c1ccccc1OC | 15.5
85 | CC(=O)Nc1ccc(NC(=O)CSc2nccn2Cc2ccc(Cl)cc2)cc1 | -9.56
86 | Cc1cccc(NS(=O)(=O)c2cccc(C(=O)N3CCN(S(=O)(=O)c4ccccc4)CC3)c2)c1 | -28.2
87 | Cc1cc(C)c(C#N)c(OCC(=O)c2ccc(Br)cc2)n1 | 17.4
88 | COc1cc(C(=O)OC(C)C(=O)Nc2ccc3c(c2)OCO3)ccc1OCc1c(C)noc1C (stereo not drawn) | 15.8
89 | C=CCNC(=O)Cn1nc(-c2ccccc2)ccc1=O | 1.12
90 | Cc1csc(-c2coc3cc(O)cc(C)c3c2=O)n1 | 2.27
